In publication PMC12136788:
The other results are listed elsewhere or left out.

B1: chr15:71825291:71825392:-|3pUTR|ENSG00000066933|unk|FALSE|unique (ssRNA)
RNA: GGGAGUUCUACAGUCCGACGAUCUGAAGCUAUUUUUGUUAAUAUUCUGGUUACUGAAGUUUAUUGUAAAUAUGUAUGUAUAGUAGGCAUAUUUCUUUUUAACCUUGUGCUUCCCUCCUUCCCAUGGAAUUUCUUCCCACAGAUCAACAGAGGAUUGAGCAUCA
B2: ENSG00000124766:be:win_2151|3pUTR|ENSG00000124766|bound_else_gene|NA|bound_elsewhere_windowed (ssRNA)
RNA: GGGAGUUCUACAGUCCGACGAUCGUGUGACCGGCGCUAGGAAAUGACCCGAGAACCCCGUUGGAAGCGCAGCAGCGGGAGCUAGGGGCGGGGGCGGAGGAGGACACGAACUGGAAGGGGGUUCACGGUCAAACUGAAAUGGAUCAACAGAGGAUUGAGCAUCA
B3: ENSG00000189184:stop:overlap|stop_codon|ENSG00000189184|stop_codon|NA|stop_codon (ssRNA)
RNA: GGGAGUUCUACAGUCCGACGAUCUGGAUGCCAGUGAACUGGUGGCAGAGAUUAACAAACUGCUUCAAGAUGUCCGCCAGAGCUAGGAGAUUUUAGCGAAGCAUUUUUGUUUCCAUGUAUAUGGAAAUAGGGAACAACAACAACCAACAGAGGAUUGAGCAUCA
B4: chr7:127374855:127374969:-|CDS|ENSG00000048405|unk|total|mutant (ssRNA)
RNA: GGGAGUUCUACAGUCCGACGAUCCCCCGAAGCCAUAUAUCCAAGUGUGGACAAACGAGAAUAUAUUAUUAAGCCCGAACCCACCGAAACUAAUCAAAAUGCAGUAUUUCAAUAUAUUUCGAGGACUGAUAAUCCUAUUGAAGUCAACAGAGGAUUGAGCAUCA
B5: chr7:101138926:101139078:+|3pUTR|ENSG00000106366|msi1|FALSE|unique (ssRNA)
RNA: GGGAGUUCUACAGUCCGACGAUCUAUUUUAAAGACCAAUUUAUGGGAGAAUUGCACACAGAUGUGAAAUGAAUGUAAUCUAAUAGAAGCCUAAUCAGCCCACCAUGUUCUCCACUGAAAAAUCCUCUUUCUUUGGGGUUUUUCCAACAGAGGAUUGAGCAUCA
B6: chr7:6403675:6403689:+|3pUTR|ENSG00000136238|msi1_unk|FALSE|overlapping (ssRNA)
RNA: GGGAGUUCUACAGUCCGACGAUCACUGUCACUUGACCAAUACUGACCCUCUUUACCUCGCCCACGCGGACACACGCCUCCUGUAGUCGCUUUGCCUAUUGAUGUUCCUUUGGGUCUGUGAGGUUCUGUAAACUGUGCUAGUGCCAACAGAGGAUUGAGCAUCA
B7: chrX:154436128:154436291:+|3pUTR|ENSG00000071553|msi1_unk|FALSE|overlapping (ssRNA)
RNA: GGGAGUUCUACAGUCCGACGAUCAUUCUAGGGUCUCCUUUCUCCUUAUUUAUUCUUGUGGCUACAUCAUCCCUGGCUGUGGAUAGUGCUUUUGUGUAGCAAAUGCUCCCUCCUUAAGGUUAUAGGGCUCCCUGAGUUUGGGAGCAACAGAGGAUUGAGCAUCA
B8: ENSG00000070961:be:win_5151|3pUTR|ENSG00000070961|bound_else_gene|NA|bound_elsewhere_windowed (ssRNA)
RNA: GGGAGUUCUACAGUCCGACGAUCUAACAGAUUAGGUAAAAUGAGAUUACAUGAAAAGGUUCUAAAAUGAUAUAUUUAGAUGCAAUAAUUAACCAUAUGCUAGAAUGCCCACCUCUAAGCCAAUUGGAUUCUUUAGCUCUCUUUCAACAGAGGAUUGAGCAUCA
B9: chr9:128583791:128583907:+|CDS|ENSG00000197694|unk|FALSE|bound_elsewhere (ssRNA)
RNA: GGGAGUUCUACAGUCCGACGAUCCAACCAGCAACAGCAAUUUAAUCGCAAUGUUGAGGAUAUUGAAUUGUGGCUAUAUGAAGUAGAAGGUCACUUGGCUUCGGAUGAUUACGGCAAAGAUCUUACCAAUGUGCAGAACCUCCACAACAGAGGAUUGAGCAUCA
B10: chr5:151662667:151662729:-|3pUTR|ENSG00000113140|msi1_unk|total|mutant (ssRNA)
RNA: GGGAGUUCUACAGUCCGACGAUCGCCAGGCUGUUUCAGCCAGGAAGGCCAAAAUCAAGAGUGAGAUGCCGAAAGUUGUAAAACCGAAAAAGUGGAGUUGGUGAAUCGGUUGUUCUUUCCUCACAUUUGGAUGAUUGUCAUAAGCAACAGAGGAUUGAGCAUCA
B11: chr19:41330322:41331077:-|three_prime_utr|ENSG00000105329|control|control|control (ssRNA)
RNA: GGGAGUUCUACAGUCCGACGAUCGUCUGCACUAUUCCUUUGCCCGGCAUCAAGGCACAGGGGACCAGUGGGGAACACUACUGUAGUUAGAUCUAUUUAUUGAGCACCUUGGGCACUGUUGAAGUGCCUUACAUUAAUGAACUCCAACAGAGGAUUGAGCAUCA
B12: chr16:3436009:3436110:-|3pUTR|ENSG00000167981|unk|FALSE|unique (ssRNA)
RNA: GGGAGUUCUACAGUCCGACGAUCAUUAAAAUGAAGGCUCUUGCUAAAGUUAUUUUAAUUUUGUUUACGUAGUUUCUGACUUUUAGAAGGAGGAGAAUUUAUUUAUAUUUUGCCAGUUCUGCAGACAUAUCUAGGAAAGUAAAUCAACAGAGGAUUGAGCAUCA
B13: ENSG00000107863:be:win_1751|CDS|ENSG00000107863|bound_else_gene|NA|bound_elsewhere_windowed (ssRNA)
RNA: GGGAGUUCUACAGUCCGACGAUCAAAAAAUUCCACCAGAUCUAAAAACAUUGCAGUCAAACAGAAAUUUUCAGACUACUUGUGGAAUGUCACUGCCUCGGGGUAUUUCACAAGACAGGUCACCUCUUGUGAAAGUCCGAAGUACAACAGAGGAUUGAGCAUCA
B14: chr5:91369659:91369760:-|3pUTR|ENSG00000113369|msi1|total|mutant (ssRNA)
RNA: GGGAGUUCUACAGUCCGACGAUCUCAGCAUUUUCCAAGGUACCAAGUGUACUUAUUUUGUUGUUGUUGUUGUUGUUGUAUUUCCGAAGGAAUUCAGCUCUGAUGUUUUUAAAGAAAACCAGCAUCUCUGAUGUUGCAACAUACCAACAGAGGAUUGAGCAUCA
B15: chr17:32711987:32712195:-|CDS|ENSG00000176658|control|control|control (ssRNA)
RNA: GGGAGUUCUACAGUCCGACGAUCUCCUUCAGACAAAGAGGCUGUCAAGAAACUAAUUGAACGGUGUGGUUUUCAGGAUGAUGUAGCUUAUGGGAAGACCAAAAUUUUCAUUCGAACACCCCGAACAUUGUUUACCUUGGAAGACAACAGAGGAUUGAGCAUCA
B16: ENSG00000136451:be:win_951|CDS|ENSG00000136451|bound_else_gene|NA|bound_elsewhere_windowed (ssRNA)
RNA: GGGAGUUCUACAGUCCGACGAUCUACAUGUAAACAAGGCAUCAGUAAAACAUGCAUGAGUGAAGAGACCAGUAACCAAAAGCAGCAGCAGCAGCAGCAGCAGCAGCAGCAGCAGCAGCAACAACAACAACAACAACAUGUGACCAACAGAGGAUUGAGCAUCA
B17: chr4:138171112:138171219:-|3pUTR|ENSG00000151012|msi1|total|mutant (ssRNA)
RNA: GGGAGUUCUACAGUCCGACGAUCUUUUUUUUUUUCACAUCAGUUUGAUCAGGAAAGUGUAUAACACAUCUCCGAGCAAGAGUCCGUUUGGUAUUAAAUCCUCAUCCGAACAACCACCUGUUUCACUAAUAACUUACCCCUGAUCAACAGAGGAUUGAGCAUCA
B18: chr10:43183422:43183523:+|CDS|ENSG00000169826|msi1|FALSE|bound_elsewhere (ssRNA)
RNA: GGGAGUUCUACAGUCCGACGAUCUAAAGCCAUGAAUGAGGCCUCUCACUCCCACCUGGGAAUGCUGGUCUUCAGGGAGGAAAUAGAGACGCAUCUUCAUAAACAGGCAUACAGGACAAACAGUGAAGCUGUUGGUUGAAAUCACAACAGAGGAUUGAGCAUCA
B19: chr11:118373572:118373686:+|CDS|ENSG00000110344|unk|FALSE|bound_elsewhere (ssRNA)
RNA: GGGAGUUCUACAGUCCGACGAUCGAAGACCUUGCUGGGAGUAAUUCUGAGUAUCUCCUGCUUAUUAAAGACUCCGGGUGUUGUAGAAAAUCAUGGCUACUUUUUGAAUCCAUCUCGUUCCAGCCCCCAGGAGAUCAAAGUACACAACAGAGGAUUGAGCAUCA
B20: ENSG00000107863:be:win_3851|CDS|ENSG00000107863|bound_else_gene|NA|bound_elsewhere_windowed (ssRNA)
RNA: GGGAGUUCUACAGUCCGACGAUCUGGCAGAAAAUUCAGAAAAAAAUAAGAUGGAACCAAGAAACCUAGCAAUAGUGUUUGGUCCCACCCUUGUUCGAACAUCAGAAGACAACAUGACCCACAUGGUCACCCACAUGCCUGACCCAACAGAGGAUUGAGCAUCA
B21: chr15:22866942:22867043:+|3pUTR|ENSG00000140157|msi1|total|mutant (ssRNA)
RNA: GGGAGUUCUACAGUCCGACGAUCUAAAGAUUUCACUAAUUUGGACCAAGAAAUUACUUUUCUUGUAUUUAAACAAACAAUGGCCGCUCACUAAAAUGACCUCAGCACAUGACGAUUUCUAUUAACAUUUUAUUGUUGCCGAAGCAACAGAGGAUUGAGCAUCA
B22: chr8:27776916:27777017:+|CDS|ENSG00000171320|unk|total|mutant (ssRNA)
RNA: GGGAGUUCUACAGUCCGACGAUCAAACCACAAGUUACACUCCAGGGUGGAGCAGCAUUUUUUGUCCGAAAAAAAUCUUCUCUCCGAAAAUCGUCCCUGGAAAAUGAGCCGUCACUGGGACGCACCCAAAAGAGUAAAUCAGAACAACAGAGGAUUGAGCAUCA

molecular target: MSI1 full-length (mouse, UniProt Q61474 1-362); experiment: nsRBNS (natural sequence RNA bind-n-seq); RBNS binding buffer (assumed for nsRBNS): 25 mM Tris pH 7.5, 150 mM KCl, 3 mM MgCl2, 0.01% Triton X-100, 500 ug/ml BSA, 20 U/ml SUPERase-In, 4 C; UNK is unkempt and MSI1 is Musashi-1; names of the RNAs are library labels; protein concentration not given here; high values mean tight binding
UniProt Q61474, sequence (Q61474 whole entry): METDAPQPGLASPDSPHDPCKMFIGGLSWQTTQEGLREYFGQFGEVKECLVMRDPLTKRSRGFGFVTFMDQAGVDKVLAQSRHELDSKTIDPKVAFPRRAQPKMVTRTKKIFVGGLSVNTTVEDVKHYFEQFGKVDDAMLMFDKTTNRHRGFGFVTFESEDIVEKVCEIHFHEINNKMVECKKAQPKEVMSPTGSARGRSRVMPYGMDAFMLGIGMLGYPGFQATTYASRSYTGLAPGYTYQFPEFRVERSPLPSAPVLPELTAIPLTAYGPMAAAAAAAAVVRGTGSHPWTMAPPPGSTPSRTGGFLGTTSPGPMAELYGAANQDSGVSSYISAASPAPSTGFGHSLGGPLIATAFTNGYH

Row | Binder | binding signal [enrichment R]
1 | B1 | 7.33
2 | B2 | 0.547
3 | B3 | 3.3
4 | B4 | 0.508
5 | B5 | 1.63
6 | B6 | 0.655
7 | B7 | 3.14
8 | B8 | 5.71
9 | B9 | 0.516
10 | B10 | 0.583
11 | B11 | 3.15
12 | B12 | 19.1
13 | B13 | 0.33
14 | B14 | 0.263
15 | B15 | 0.412
16 | B16 | 0.482
17 | B17 | 0.7
18 | B18 | 0.394
19 | B19 | 0.385
20 | B20 | 0.286
21 | B21 | 0.385
22 | B22 | 0.313
